Reference: the supplement of paper PMC12217912
This is one part of the list. Sequences were assembled here from the parent chain. Inactive controls read about 0.05.

B1: TEV protease; numbered along this chain (parent)
chain: MGESLFKGPRDYNPISSSICHLTNESDGHTTSLYGIGFGPFIITNKHLFRRNNGTLVVQSLHGVFKVKDTTTLQQHLVDGRDMIIIRMPKDFPPFPQKLKFREPQREERICLVTTNFQTKSMSSMVSDTSCTFPSGDGIFWKHWIQTKDGQCGSPLVSTRDGFIVGIHSASNFTNTNNYFTSVPKNFMELLTNQEAQQWVSGWRLNADSVLWGGHKVFMVKPEEPFQPVKEATQL

Variants of: B1
Assay: raw area under fraction-flipped curve 0-4 h after induction (AUC4h, not background-subtracted), DNA-recorder readout of cleavage of the substrate (dimensionless); higher = more cleavage of the substrate by the protease variant
Settings: temperature: 34 °C; time window: 0-4 h after rhamnose induction
Procedure: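 In vivo DNA recorder in E. coli TOP10(DE3) ΔrhaA at 34 °C. Each TEVp single-site mutant (parent TEVp 0) is paired with a single-site variant of the 7-mer TEVs (canonical ENLYFQ|S). The substrate sits between flexible linkers in a Bxb1-sfGFP-TEVs-SsrA fusion, so cleavage stabilises Bxb1 and speeds flipping of a recombination array, read by NGS. The value is the raw area under the fraction-flipped curve over 0-4 h after rhamnose induction (AUC4h), with ≥20 reads per time point. It is not background-subtracted; inactive controls average about 0.047.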
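Further: Bxb1 expression induced with 0.2% (w/v) L-rhamnose at OD600 near 0.5, cultures sampled hourly, flipped fraction per protease–substrate barcode pair counted by paired-end Illumina sequencing.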

Variant	area with substrate ENAYFQS	area with substrate ENDYFQS	area with substrate ENEYFQS	area with substrate ENGYFQS	area with substrate ENIYFQS	area with substrate ENKYFQS	area with substrate ENNYFQS	area with substrate ENPYFQS	area with substrate ENSYFQS	area with substrate ENVYFQS	area with substrate ENYYFQS	area with substrate ENCYFQS	area with substrate ENFYFQS	area with substrate ENHYFQS	area with substrate ENMYFQS	area with substrate ENQYFQS	area with substrate ENRYFQS	area with substrate ENTYFQS	area with substrate ENWYFQS
MGESLFKGPRDYNPISSSICHLTNESDGHTTSLYGIGFGPFIITNKHLFRRNNGTLVVQSLHGVFKVKDTTTLQQHLVDGRDMIIIRMPKDFPPFPQKLKFREPQREERICLVTTNFQTKSMSSMVSDTSCTFPSGDGIFWKHWIQTKDGQCGSPLVSTRDGFIVGIHSASNFTNTNNYFTSVPKNFMELLTNQEAQQWVSGWRLNADSVLWGGNKVFMVKPEEPFQPVKEATQL [H215N]	0.0564	0.06	0.0583	0.0572	0.0416	0.0513	0.045	0.0842	0.0781	0.0672	0.0724								
MGESLFKGPRDYNPISSSICHLTNESDGHTTSLYGIGFGPFIITNKHLFRRNNGTLVVQSLHGVFKVKDTTTLQQHLVDGRDMIIIRMPKDFPPFPQKLKFREPQREERICLVTTNFQTKSMSSMVSDTSCTFPSGDGIFWKHWIQTKDGQCGSPLVSTRDGFIVGIHSASNFTNTNNYFTSVPKNFMELLTNQEAQQWVSGWRLNADSVLWGGHWVFMVKPEEPFQPVKEATQL [K216W]	0.0606	0.0508	0.0628		0.0887	0.0496		0.0543	0.0565	0.068	0.0603	0.0733	0.074	0.0646	0.0763	0.084	0.0584	0.0511	
MGESLFKGPRDYNPISSSICHLTNESDGHTTSLYGIGFGPFIITNKHLFRRNNGTLVVQSLHGVFKVKDTTTLQQHLVDGRDMIIIRMPKDFPPFPQKLKFREPQREERICLVTTNFQTKSMSSMVSDTSCTFPSGDGIFWKHWIQTKDGQCGSPLVSTRDGFIVGIHSASNFTNTNNYFTSVPKNFMELLTNQEAQQWVSGWRLNADSVLWGGHKGFMVKPEEPFQPVKEATQL [V217G]	0.0576	0.0534			0.0723	0.0537			0.0558						0.0521	0.0451	0.0572		0.0138
MGESLFKGPRDYNPISSSICHLTNESDGHTTSLYGIGFGPFIITNKHLFRRNNGTLVVQSLHGVFKVKDTTTLQQHLVDGRDMIIIRMPKDFPPFPQKLKFREPQREERICLVTTNFQTKSMSSMVSDTSCTFPSGDGIFWKHWIQTKDGQCGSPLVSTRDGFIVGIHSASNFTNTNNYFTSVPKNFMELLTNQEAQQWVSGWRLNADSVLWGGHKRFMVKPEEPFQPVKEATQL [V217R]	0.0961				0.0577	0.0551			0.0896		0.0768	0.0691			0.0809		0.0595	0.0552	
MGESLFKGPRDYNPISSSICHLTNESDGHTTSLYGIGFGPFIITNKHLFRRNNGTLVVQSLHGVFKVKDTTTLQQHLVDGRDMIIIRMPKDFPPFPQKLKFREPQREERICLVTTNFQTKSMSSMVSDTSCTFPSGDGIFWKHWIQTKDGQCGSPLVSTRDGFIVGIHSASNFTNTNNYFTSVPKNFMELLTNQEAQQWVSGWRLNADSVLWGGHKVAMVKPEEPFQPVKEATQL [F218A]	0.0351	0.0621		0.0657	0.07				0.0635	0.0621	0.0439	0.0905			0.06				0.0535
MGESLFKGPRDYNPISSSICHLTNESDGHTTSLYGIGFGPFIITNKHLFRRNNGTLVVQSLHGVFKVKDTTTLQQHLVDGRDMIIIRMPKDFPPFPQKLKFREPQREERICLVTTNFQTKSMSSMVSDTSCTFPSGDGIFWKHWIQTKDGQCGSPLVSTRDGFIVGIHSASNFTNTNNYFTSVPKNFMELLTNQEAQQWVSGWRLNADSVLWGGHKVDMVKPEEPFQPVKEATQL [F218D]	0.0497	0.0619	0.0766				0.0681					0.0593	0.0432						0.0521
MGESLFKGPRDYNPISSSICHLTNESDGHTTSLYGIGFGPFIITNKHLFRRNNGTLVVQSLHGVFKVKDTTTLQQHLVDGRDMIIIRMPKDFPPFPQKLKFREPQREERICLVTTNFQTKSMSSMVSDTSCTFPSGDGIFWKHWIQTKDGQCGSPLVSTRDGFIVGIHSASNFTNTNNYFTSVPKNFMELLTNQEAQQWVSGWRLNADSVLWGGHKVKMVKPEEPFQPVKEATQL [F218K]	0.0128		0.0669	0.0738					0.0645		0.064		0.0749						
MGESLFKGPRDYNPISSSICHLTNESDGHTTSLYGIGFGPFIITNKHLFRRNNGTLVVQSLHGVFKVKDTTTLQQHLVDGRDMIIIRMPKDFPPFPQKLKFREPQREERICLVTTNFQTKSMSSMVSDTSCTFPSGDGIFWKHWIQTKDGQCGSPLVSTRDGFIVGIHSASNFTNTNNYFTSVPKNFMELLTNQEAQQWVSGWRLNADSVLWGGHKVTMVKPEEPFQPVKEATQL [F218T]	0.0526		0.0542				0.055		0.07			0.0528	0.0739			0.0617		0.0566	0.0523
MGESLFKGPRDYNPISSSICHLTNESDGHTTSLYGIGFGPFIITNKHLFRRNNGTLVVQSLHGVFKVKDTTTLQQHLVDGRDMIIIRMPKDFPPFPQKLKFREPQREERICLVTTNFQTKSMSSMVSDTSCTFPSGDGIFWKHWIQTKDGQCGSPLVSTRDGFIVGIHSASNFTNTNNYFTSVPKNFMELLTNQEAQQWVSGWRLNADSVLWGGHKVFPVKPEEPFQPVKEATQL [M219P]	0.0513	0.0581	0.0667	0.0636	0.0623			0.0574	0.0584	0.053	0.0761	0.0616	0.0734			0.0653		0.0563	0.051
MGESLFKGPRDYNPISSSICHLTNESDGHTTSLYGIGFGPFIITNKHLFRRNNGTLVVQSLHGVFKVKDTTTLQQHLVDGRDMIIIRMPKDFPPFPQKLKFREPQREERICLVTTNFQTKSMSSMVSDTSCTFPSGDGIFWKHWIQTKDGQCGSPLVSTRDGFIVGIHSASNFTNTNNYFTSVPKNFMELLTNQEAQQWVSGWRLNADSVLWGGHKVFMLKPEEPFQPVKEATQL [V220L]	0.0604	0.069	0.0588	0.067			0.0629	0.0701	0.0709	0.0715		0.0581		0.0639	0.0701	0.0538	0.0493	0.058	
